# In the supplement of paper PMC8728848:
# The other results are listed elsewhere or left out.
# B1: CBM40 CPF071 (Clostridium perfringens) (protein)
# chain: MAHHHHHHVGTGSNDDDDKSPDPMLSSLGEYKDINLESSNASNITYDLEKYKNLDEGTIVVRFNSKDSKIQSLLGISNSKTKNGYFNFYVTNSRVGFELRNQKNEGNTQNGTENLVHMYKDVALNDGDNTVALKIEKNKGYKLFLNGKMIKEVKDTNTKFLNNIENLDSAFIGKTNRYGQSNEYNFKGNIGFMNIYNEPLGDDYLLSKTGETK
# Assays:
# Assay in all cases: glycan array binding signal (z-score within array); higher = stronger binding
# Details in all cases: glycan notation: IUPAC condensed, linker removed
# [1] = biological target: Gal(b1-3)GlcNAc(b1-6)[Gal(b1-3)]GalNAc
# Outline: (§1)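 The binding signal is a Z-score computed within each array and averaged over linkers. Arrays of the same protein sequence at different concentrations or buffers were also averaged together. Data originate from 3228 arrays in the Consortium for Functional Glycomics database, kept only where the protein sequence was available.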
# Gal(b1-3)GlcNAc6S = biological target: Gal(b1-3)GlcNAc6S
# Outline: as §1
# [2] = biological target: Gal(b1-3)[Fuc(a1-4)]GlcNAc
# Outline: as §1
# [3] = biological target: Gal(b1-3)[Fuc(a1-4)]GlcNAc(b1-2)Man
# Outline: as §1
# [4] = biological target: Gal(b1-3)[Fuc(a1-4)]GlcNAc(b1-2)Man(a1-3)[Gal(b1-3)[Fuc(a1-4)]GlcNAc(b1-2)Man(a1-6)]Man(b1-4)GlcNAc(b1-4)[Fuc(a1-6)]GlcNAc
# Outline: as §1
# [5] = biological target: Gal(b1-3)[Fuc(a1-4)]GlcNAc(b1-3)Gal(b1-3)[Fuc(a1-4)]GlcNAc
# Outline: as §1
# [6] = biological target: Gal(b1-3)[Fuc(a1-4)]GlcNAc(b1-3)Gal(b1-4)[Fuc(a1-3)]GlcNAc
# Outline: as §1
# [7] = biological target: Gal(b1-3)[Fuc(a1-4)]GlcNAc(b1-6)GalNAc
# Outline: as §1
# [8] = biological target: Gal(b1-3)[GlcNAc(b1-6)]GalNAc
# Outline: as §1
# [9] = biological target: Gal(b1-3)[Neu5Ac(a2-6)]GalNAc
# Outline: as §1
# [10] = biological target: Gal(b1-3)[Neu5Ac(a2-6)]GlcNAc(b1-4)Gal(b1-4)Glc
# Outline: as §1
# [11] = biological target: Gal(b1-3)[Neu5Ac(b2-6)]GalNAc
# Outline: as §1
# Gal(b1-4)Gal = biological target: Gal(b1-4)Gal
# Outline: as §1
# [12] = biological target: Gal(b1-4)GalNAc(a1-3)[Fuc(a1-2)]Gal(b1-4)GlcNAc
# Outline: as §1
# [13] = biological target: Gal(b1-4)GalNAc(b1-3)[Fuc(a1-2)]Gal(b1-4)GlcNAc
# Outline: as §1
# Gal(b1-4)Glc = biological target: Gal(b1-4)Glc
# Outline: as §1
# Gal(b1-4)Glc6S = biological target: Gal(b1-4)Glc6S
# Outline: as §1
# Gal(b1-4)GlcNAc = biological target: Gal(b1-4)GlcNAc
# Outline: as §1
# [14] = biological target: Gal(b1-4)GlcNAc(a1-6)Gal(b1-4)GlcNAc
# Outline: as §1
# Gal(b1-4)GlcNAc(b1-2)Man = biological target: Gal(b1-4)GlcNAc(b1-2)Man
# Outline: as §1
# [15] = biological target: Gal(b1-4)GlcNAc(b1-2)Man(a1-3)Man(b1-4)GlcNAc(b1-4)GlcNAc
# Outline: as §1
# [16] = biological target: Gal(b1-4)GlcNAc(b1-2)Man(a1-3)[Gal(b1-4)GlcNAc(b1-2)Man(a1-6)]Man(b1-4)GlcNAc(b1-4)GlcNAc
# Outline: as §1
# [17] = biological target: Gal(b1-4)GlcNAc(b1-2)Man(a1-3)[Gal(b1-4)GlcNAc(b1-2)Man(a1-6)]Man(b1-4)GlcNAc(b1-4)[Fuc(a1-6)]GlcNAc
# Outline: as §1
# [18] = biological target: Gal(b1-4)GlcNAc(b1-2)Man(a1-3)[Gal(b1-4)GlcNAc(b1-2)Man(a1-6)][Gal(b1-4)GlcNAc(b1-4)]Man(b1-4)GlcNAc(b1-4)[Fuc(a1-6)]GlcNAc
# Outline: as §1
# [19] = biological target: Gal(b1-4)GlcNAc(b1-2)Man(a1-3)[Gal(b1-4)GlcNAc(b1-2)Man(a1-6)][GlcNAc(b1-4)]Man(b1-4)GlcNAc(b1-4)[Fuc(a1-6)]GlcNAc
# Outline: as §1
# [20] = biological target: Gal(b1-4)GlcNAc(b1-2)Man(a1-3)[GlcNAc(b1-2)Man(a1-6)]Man(b1-4)GlcNAc(b1-4)GlcNAc
# Outline: as §1
# [21] = biological target: Gal(b1-4)GlcNAc(b1-2)Man(a1-3)[GlcNAc(b1-4)][Gal(b1-4)GlcNAc(b1-2)Man(a1-6)]Man(b1-4)GlcNAc(b1-4)GlcNAc
# Outline: as §1
# [22] = biological target: Gal(b1-4)GlcNAc(b1-2)Man(a1-3)[Man(a1-6)]Man(b1-4)GlcNAc(b1-4)GlcNAc
# Outline: as §1
# [23] = biological target: Gal(b1-4)GlcNAc(b1-2)Man(a1-6)Man(b1-4)GlcNAc(b1-4)GlcNAc
# Outline: as §1
# [24] = biological target: Gal(b1-4)GlcNAc(b1-2)Man(a1-6)[GlcNAc(b1-2)Man(a1-3)]Man(b1-4)GlcNAc(b1-4)GlcNAc
# Outline: as §1
# [25] = biological target: Gal(b1-4)GlcNAc(b1-2)Man(a1-6)[Man(a1-3)]Man(b1-4)GlcNAc(b1-4)GlcNAc
# Outline: as §1
# [26] = biological target: Gal(b1-4)GlcNAc(b1-2)[Gal(b1-4)GlcNAc(b1-4)]Man(a1-3)[Gal(b1-4)GlcNAc(b1-2)Man(a1-6)]Man(b1-4)GlcNAc(b1-4)GlcNAc
# Outline: as §1
# [27] = biological target: Gal(b1-4)GlcNAc(b1-2)[Gal(b1-4)GlcNAc(b1-4)]Man(a1-3)[Gal(b1-4)GlcNAc(b1-2)[Gal(b1-4)GlcNAc(b1-6)]Man(a1-6)]Man(b1-4)GlcNAc(b1-4)GlcNAc
# Outline: as §1
# [28] = biological target: Gal(b1-4)GlcNAc(b1-2)[Gal(b1-4)GlcNAc(b1-4)]Man(a1-3)[GlcNAc(b1-4)][Gal(b1-4)GlcNAc(b1-2)Man(a1-6)]Man(b1-4)GlcNAc(b1-4)GlcNAc
# Outline: as §1
# [29] = biological target: Gal(b1-4)GlcNAc(b1-2)[Gal(b1-4)GlcNAc(b1-4)]Man(a1-3)[GlcNAc(b1-4)][Gal(b1-4)GlcNAc(b1-2)[Gal(b1-4)GlcNAc(b1-6)]Man(a1-6)]Man(b1-4)GlcNAc(b1-4)GlcNAc
# Outline: as §1
# [30] = biological target: Gal(b1-4)GlcNAc(b1-2)[Gal(b1-4)GlcNAc(b1-6)]Man(a1-6)[Gal(b1-4)GlcNAc(b1-2)Man(a1-3)]Man(b1-4)GlcNAc(b1-4)GlcNAc
# Outline: as §1
# [31] = biological target: Gal(b1-4)GlcNAc(b1-2)[Gal(b1-4)GlcNAc(b1-6)]Man(a1-6)[Gal(b1-4)GlcNAc(b1-2)Man(a1-3)]Man(b1-4)GlcNAc(b1-4)[Fuc(a1-6)]GlcNAc
# Outline: as §1
# [32] = biological target: Gal(b1-4)GlcNAc(b1-2)[Gal(b1-4)GlcNAc(b1-6)]Man(a1-6)[GlcNAc(b1-4)][Gal(b1-4)GlcNAc(b1-2)Man(a1-3)]Man(b1-4)GlcNAc(b1-4)GlcNAc
# Outline: as §1
# [33] = biological target: Gal(b1-4)GlcNAc(b1-2)[Gal(b1-4)GlcNAc(b1-6)]Man(a1-6)[GlcNAc(b1-4)][Gal(b1-4)GlcNAc(b1-2)[Gal(b1-4)GlcNAc(b1-4)]Man(a1-3)]Man(b1-4)GlcNAc(b1-4)[Fuc(a1-6)]GlcNAc
# Outline: as §1
# [34] = biological target: Gal(b1-4)GlcNAc(b1-3)Gal(b1-3)GalNAc
# Outline: as §1
# [35] = biological target: Gal(b1-4)GlcNAc(b1-3)Gal(b1-3)GlcNAc
# Outline: as §1
# [36] = biological target: Gal(b1-4)GlcNAc(b1-3)Gal(b1-4)Glc
# Outline: as §1
# [37] = biological target: Gal(b1-4)GlcNAc(b1-3)Gal(b1-4)GlcNAc
# Outline: as §1
# [38] = biological target: Gal(b1-4)GlcNAc(b1-3)Gal(b1-4)GlcNAc(b1-2)Man(a1-3)[Gal(b1-4)GlcNAc(b1-3)Gal(b1-4)GlcNAc(b1-2)Man(a1-6)]Man(b1-4)GlcNAc(b1-4)GlcNAc
# Outline: as §1
# [39] = biological target: Gal(b1-4)GlcNAc(b1-3)Gal(b1-4)GlcNAc(b1-2)Man(a1-3)[Gal(b1-4)GlcNAc(b1-3)Gal(b1-4)GlcNAc(b1-2)Man(a1-6)]Man(b1-4)GlcNAc(b1-4)[Fuc(a1-6)]GlcNAc
# Outline: as §1
binder,measurement,setting,value
B1,glycan array binding signal (z-score),[1],0.01
same,glycan array binding signal (z-score),Gal(b1-3)GlcNAc6S,-0.221
same,glycan array binding signal (z-score),[2],-0.098
same,glycan array binding signal (z-score),[3],-0.329
same,glycan array binding signal (z-score),[4],-0.395
same,glycan array binding signal (z-score),[5],-0.216
same,glycan array binding signal (z-score),[6],-0.385
same,glycan array binding signal (z-score),[7],-0.346
same,glycan array binding signal (z-score),[8],0.093
same,glycan array binding signal (z-score),[9],-0.306
same,glycan array binding signal (z-score),[10],-0.087
same,glycan array binding signal (z-score),[11],-0.355
same,glycan array binding signal (z-score),Gal(b1-4)Gal,-0.26
same,glycan array binding signal (z-score),[12],-0.293
same,glycan array binding signal (z-score),[13],-0.434
same,glycan array binding signal (z-score),Gal(b1-4)Glc,-0.251
same,glycan array binding signal (z-score),Gal(b1-4)Glc6S,-0.232
same,glycan array binding signal (z-score),Gal(b1-4)GlcNAc,-0.105
same,glycan array binding signal (z-score),[14],-0.095
same,glycan array binding signal (z-score),Gal(b1-4)GlcNAc(b1-2)Man,-0.555
same,glycan array binding signal (z-score),[15],-0.163
same,glycan array binding signal (z-score),[16],-0.411
same,glycan array binding signal (z-score),[17],0.022
same,glycan array binding signal (z-score),[18],0.079
same,glycan array binding signal (z-score),[19],-0.197
same,glycan array binding signal (z-score),[20],-0.427
same,glycan array binding signal (z-score),[21],-0.44
same,glycan array binding signal (z-score),[22],-0.402
same,glycan array binding signal (z-score),[23],-0.326
same,glycan array binding signal (z-score),[24],-0.515
same,glycan array binding signal (z-score),[25],-0.615
same,glycan array binding signal (z-score),[26],-0.479
same,glycan array binding signal (z-score),[27],-0.075
same,glycan array binding signal (z-score),[28],-0.27
same,glycan array binding signal (z-score),[29],-0.655
same,glycan array binding signal (z-score),[30],-0.455
same,glycan array binding signal (z-score),[31],-0.351
same,glycan array binding signal (z-score),[32],-0.173
same,glycan array binding signal (z-score),[33],-0.343
same,glycan array binding signal (z-score),[34],0.018
same,glycan array binding signal (z-score),[35],-0.363
same,glycan array binding signal (z-score),[36],-0.338
same,glycan array binding signal (z-score),[37],0.186
same,glycan array binding signal (z-score),[38],-0.391
same,glycan array binding signal (z-score),[39],-0.279
